The supplement of paper PMC10338343
± gives the standard deviation. The full ranking holds about 3,000 sequences; the median of “pre-steady-state target cleavage rate” is about 0.0079, and the highest 2% start at about 0.2. Only a part is listed here, and it is no random draw.

What follows are sequences tested on MILI (PIWIL2) piRISC loaded with piRNA #2 (26 nt) (assay: pre-steady-state target cleavage rate (min^-1); MIWI and MILI are mouse PIWI proteins and EfPiwi is from a freshwater sponge; tags in brackets are library labels; higher = faster piRNA-guided slicing of the target). Details: guide: piRNA #2 5'p-UUAGGUAACCCAGUAGAUCCAGAGGA; auxiliary factor: 500 nM mouse GTSF1.
Outline: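 Sequencing of uncleaved targets, normalised to depth and to weakly complementary targets, was the readout of this Cleave-'n-Seq assay. A transcribed, DNA-blocked target RNA library (0.1 nM) was mixed with 1 nM active affinity-purified piRISC carrying one synthetic guide, with or without 500 nM GTSF1 partner protein, in HEPES–potassium acetate buffer at 33 °C for 0–8 or 0–960 min. Three trials were pooled, k3 was capped at 0.0001 min^-1, and a burst-and-steady-state fit gave the pre-steady-state cleavage rate.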

Point of comparison: CUUAACCUCUGGAACUACUCGGUUACCUAA, “pre-steady-state target cleavage rate” value 0.00428 ± 0.0028. Against it:
- CUUAAGCUCUGGAUCUUCUGGGUUACCUUA — higher, 0.0449 ± 0.013
- CUUAAGCUCUGCAUCUACUGGGUUACGUAA — higher, 0.0499 ± 0.016
- CUUAUCCUCUGGAUCUACUGGGUCUACCUAA — higher, 0.0768 ± 0.013
- CUUAAGCUCUGGAUCUACUGGGUUACCUCAA — higher, 0.0468 ± 0.011
- CUUAAGGUCACGAUCUACUGGGUUACCUAA — within error, 0.00915 ± 0.0045
- CUUAAGCUCUGCUACUACUGGGUUACCUAA — higher, 0.0262 ± 0.0086
- CUUAAGGUCUGGAAGUACUGGGUUACCUAA — higher, 0.0627 ± 0.018
- CUUAAGGACUGGGAUCUACUGGGUUACCUAA — within error, 0.0184 ± 0.013
- CUUAAGGACUGGAUCUACUGGGUUACCUAAA — higher, 0.0459 ± 0.021
- CUUAAGCUCUGGAACUACUGGGUAACCUAA — higher, 0.0205 ± 0.0095
- CUUAUGCUCUGGAUCAACUGGGUUACCUAA — higher, 0.0439 ± 0.0094
- CUUAAGCUGUGGAUCUAGUGGGUUACCUAA — higher, 0.0526 ± 0.014
- CUUAACCUCAGGUUCUACUGGGUUACCUAA — higher, 0.073 ± 0.019
- CUUAACCUCUGGAAUCUACUGGGUUACCUAA — higher, 0.101 ± 0.024
- CUUAAGGUCUGCAUCUACUGGGUUACGUAA — higher, 0.0206 ± 0.01
- CUUAAGCUCAGGAUCUACUGGGUUACCAAA — higher, 0.0403 ± 0.012
- CUUAACCUCUCGAUCUACUGGGUUACCAAA — higher, 0.0719 ± 0.016
- CUUAAGGAGUGGAUCCACUGGGUUACCUAA — higher, 0.0426 ± 0.013
- CUUAAGCUCUGGAUCUACUGGGAAUCCUAA — within error, 0.00557 ± 0.004
- CUUAAGCUCUGGAUCUACUGGGUUACUAA — higher, 0.139 ± 0.027
- CUUAUCCUCUGGAUCUACUGGGUUAGCCUAA — higher, 0.151 ± 0.029
- CUUAACCUCUGGAUCUACAGGGUUACCUUA — higher, 0.084 ± 0.019
- CUUAAGGUCUGCAUGUACUGGGUUACCUAA — higher, 0.0391 ± 0.018
- CUUAUCCUCUGGAUCUACUGGGUUACCUAU [g2:g26:cont:t1U] — higher, 0.127 ± 0.023
- CUUAAGGAGUGGAUCUACUGGGUUACCAUA — higher, 0.0171 ± 0.0071
- CUUAAGGUGUGGAACUACUGGGUUACCUAA — within error, 0.0113 ± 0.01
- CUUAAGGAGAGCAUCUACUGGGUAACCUAA — within error, 0.00752 ± 0.0046
- CUUAAGGAGUGGAUCUACUGGGUUUACCUAA — higher, 0.0223 ± 0.0077
- CUUAUCCUCUGGAUCUACUGGGUUACCUGAA — higher, 0.384 ± 0.17
- CUUAAGGUCUGGAUGUACUGGGUUACGUAA — within error, 0.0111 ± 0.01
- CUUAAGGAGUGGAUCUACUGGGUCACCUAA — within error, 0.00943 ± 0.0049
- CUUAACGCUCUGGAUCUACUGGGUUACCUAA — higher, 0.0744 ± 0.029
- CUUAUCCUCUGGAUCUACUGGGAUACCUUA — higher, 0.129 ± 0.041
- CUUAUCGCUCUGGAUCUACUGGGUUACCUAA — higher, 0.0427 ± 0.016
- CUUAUCCUCUGGAUCUACUGCGUAACCUAA — within error, 0.0113 ± 0.0053
- CUUAUCCUCUGCAUCAACUGGGUUACCUAA — higher, 0.0996 ± 0.024
- CUUAUCCUGUGGAUCUACUGGGUAACCUAA — higher, 0.0153 ± 0.0062
- CUUAAGGAGUGGAUCUACAGCGUUACCUAA — within error, 0.0072 ± 0.0036
- CUUAAGGAGUGGAUCUAGCUGGGUUACCUAA — lower, < 0.0001
- CUUAUCCUCUGGAUCAACUGGGUAACCUAA — higher, 0.0185 ± 0.0057
- CUUAAGCAGAGGAUCUACUGGGUUACCUAA — higher, 0.0164 ± 0.0047
- CUUAAGGACUGCAUCUACUGGGUUACCUUA — within error, 0.0139 ± 0.011
- CUUAAGCUCUGGAUCUACUGGGAUUCCUAA — within error, 0.007 ± 0.0043
- CUUAAGGUCUCCAUCUACUGGGUUACCUAA — within error, 0.00394 ± 0.0037
- CUUAAGGAGACCUUCUACUGUGGUUACCUAA — lower, < 0.0001
- CUUAAGGAGUGGAUCUACUGGGUUACCUGA — higher, 0.0222 ± 0.013
- CUUAAGGAGUUGGAUCUACUGGGUUACCUAA — higher, 0.0386 ± 0.012
- CUUAUCCUCUGGAAUCUACUGGGUUACCUAA — higher, 0.156 ± 0.035
- CUUAUCCUCUGGAUCUACCGGGUUACCUAA — higher, 0.064 ± 0.02
- CUUAAGCUCUGGAUCUACUGGGUUAGGAUA [g6:g24:cont:t1A] — within error, 0.00619 ± 0.0041
- CUUAACCUCUGGAUCUUCAGGGUUACCUAA — higher, 0.0729 ± 0.013
- CUUAACCUCUGGAUCUACUGGGUCACCUAA — higher, 0.0651 ± 0.021
- CUUAAGCUCUGGAACUACUGGGUUAGCUAA — higher, 0.0581 ± 0.021
- CUUAAGGUCUGGAUCUACUGGGUAACCUUA — within error, 0.00985 ± 0.0043
- CUUAAGCUCUGGAUCUAGUGGGUAACCUAA — within error, 0.00908 ± 0.0032
- CUUAAGGACUGCAUCUACUGGGUUACCUAA — within error, 0.0213 ± 0.015
- CUUAAGGAGACCUACUACUGGGUUACACUAA — lower, < 0.0001
- CUUAAGGAGUCGAUCUACUGGGUUACCUAA — within error, 0.0049 ± 0.0041
- CUUAUCCUCUGCAUCUACUGGGUUACCUUA — higher, 0.466 ± 0.13
- CUUAACCUGUGGAUCUACUGGGUAACCUAA — higher, 0.0162 ± 0.0075
- CUUAAGCUCUGGAUCUACUGGCUAACCUAA — lower, < 0.0001
- CUUAUCCUGACGAUCUACUGGGUUACCUAA — higher, 0.056 ± 0.019
- CUUAUCCACUGCAUCUACUGGGUUACCUAA — higher, 0.0992 ± 0.015
- CUUAAGGAGACCUAGAUGACGGUGUACCUAA — lower, < 0.0001
- CUUAUCCUCUGCAACUACUGGGUUACCUAA — higher, 0.093 ± 0.015
- CUUAAGGUCUGGUUCUACUGGGUUUCCUAA — within error, 0.016 ± 0.01
- CUUAAGCUCUGGAUCUACUGGGUUACCUAA [g2:g24:cont:t1A] — higher, 0.0702 ± 0.018
- CUUAUCCUGUGGAUCUACUGCGUUACCUAA — within error, 0.00803 ± 0.0045
- CUUAAGGUCUGGAUCUACAGCGUUACCUAA — higher, 0.0157 ± 0.0035
- CUUAACCACUGGAUCUUCUGGGUUACCUAA — higher, 0.0833 ± 0.016
- CUUAUCCUCUGGAACUUCUGGGUUACCUAA — higher, 0.117 ± 0.031
